Among all 16,000 compounds or so, about 120 (0.75%) were called active. Another 4% or so got no clear call; they are omitted. The call rests on the fitted dose curve; in most records, active means well fitted inhibition curve with a large enough effect; inconclusive means small, poorly fitted or top-dose-only effect; inactive means no such curve, though single readings can be large or run the other way. Some of the results follow. Where a SMILES comes first, the peptide text is derived from it. Bridges are numbered along the chain shown (N, C = ends).
Molecular target: Rap guanine nucleotide exchange factor 3 (Homo sapiens) (UniProt O95398)
Sequence of UniProt O95398 (O95398 whole entry, looked up): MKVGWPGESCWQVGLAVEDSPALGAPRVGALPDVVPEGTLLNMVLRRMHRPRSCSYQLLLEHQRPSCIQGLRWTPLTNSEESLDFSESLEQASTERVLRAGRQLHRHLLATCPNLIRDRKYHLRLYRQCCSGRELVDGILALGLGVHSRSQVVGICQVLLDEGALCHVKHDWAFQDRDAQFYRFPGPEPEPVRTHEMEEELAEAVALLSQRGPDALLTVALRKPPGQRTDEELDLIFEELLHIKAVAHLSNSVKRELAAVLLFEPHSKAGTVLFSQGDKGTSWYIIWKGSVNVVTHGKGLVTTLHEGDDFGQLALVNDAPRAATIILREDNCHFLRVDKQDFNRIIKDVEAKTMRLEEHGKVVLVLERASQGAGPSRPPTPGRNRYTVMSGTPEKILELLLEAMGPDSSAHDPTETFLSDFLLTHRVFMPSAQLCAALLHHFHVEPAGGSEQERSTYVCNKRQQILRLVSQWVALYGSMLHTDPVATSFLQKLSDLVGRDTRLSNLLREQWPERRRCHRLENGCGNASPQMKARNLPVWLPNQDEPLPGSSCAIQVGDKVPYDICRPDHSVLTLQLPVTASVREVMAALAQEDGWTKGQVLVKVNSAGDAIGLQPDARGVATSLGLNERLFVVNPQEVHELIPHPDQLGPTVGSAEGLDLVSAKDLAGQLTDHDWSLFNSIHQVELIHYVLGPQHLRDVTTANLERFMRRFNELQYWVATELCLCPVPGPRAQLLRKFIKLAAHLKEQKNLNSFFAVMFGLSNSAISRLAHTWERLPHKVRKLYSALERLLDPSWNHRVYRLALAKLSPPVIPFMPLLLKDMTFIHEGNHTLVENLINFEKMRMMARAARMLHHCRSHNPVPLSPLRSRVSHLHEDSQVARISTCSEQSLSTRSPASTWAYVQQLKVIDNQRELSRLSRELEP
Assay: Validation qHTS for antagonist of cAMP-regulated guanine nucleotide exchange factor 3 (EPAC1); further: nearly all actives have a fitted effect of over 75% in size;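 on activity change, negative = inhibition: plate controls were DMSO for no effect and ATA control for full effect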
Settings: EPAC1 Rap1B-BODIPY-GDP exchange, fluorescence; series mostly up to 150 µM; activity change, negative = inhibition: at the top concentration
Procedure, shortened: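 Nucleotide exchange followed as fluorescence loss when BODIPY-GDP leaves Rap1B (480 nm excitation, 540 nm emission), read at 5 min intervals over 30 min. Reaction: 100 nM EPAC1, 250 nM RAP1B-BODIPY-GDP, 50 uM GDP; ATA and DMSO define normalization.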
Potency means the concentration at half of the fitted maximal effect.

Structure (SMILES)	activity change, negative = inhibition	Potency
CCN1CCN(C(=O)c2cnn(-c3ncc4c(n3)-c3ccccc3CCC4)c2COC)CC1	inactive: -3.59%	–
Cn1c(=O)c(-c2cc(F)cc(F)c2)nc2cnc(Oc3cccc(Cl)c3)nc21	inactive: 9.9%	–
C[C@@]12C(=O)OC(=O)[C@@]1(C)C1CCC2O1	inactive: 10.3%	–
COCCn1c(=O)c(C)nc2cnc(Oc3cccc(Cl)c3)nc21	inactive: 12.9%	–
O=C(c1csnn1)N1CCC2(CCCN(c3ccccn3)C2)CC1	inactive: 6.37%	–
CCOC(=O)C[C@H]1c2cc(C(F)(F)F)ccc2S(=O)(=O)N1C(C)C	inactive: -1.57%	–
COc1ncc2nc(-c3ccc(F)cc3)c(=O)n(CCc3ccccc3)c2n1	inactive: 16.4%	–
NC(N)=NCCNS(=O)(=O)c1cccc2cnccc12	inactive: -0.457%	–
COc1ccc(NC(=O)[C@@H]2CC=C[C@@H]3CCN(Cc4ccc(Cl)c(Cl)c4)C(=O)[C@@H]32)cc1	inactive: -17%	–
C=CCN1CCN(c2nc3ccccc3nc2C#N)CC1	inactive	–
COc1ccc(C(=O)N2CCC3(CCN(C(=O)Nc4cccc(F)c4)CC3)CC2)cc1	inactive: -2.45%	–
Cc1c(C(N)=O)cc([N+](=O)[O-])cc1[N+](=O)[O-]	inactive: 0.856%	–
CN1CCC2(CC1)CCN(C(=O)c1cccc(F)c1)CC2	inactive: 12%	–
CCN(CC)C[C@@H]1CCCCN1CC(=O)N1c2ccccc2C(=O)Nc2cccnc21	inactive: 5.98%	–
CNC(=O)[C@H]1O[C@@H](n2cnc3c(NCc4cccc(I)c4)ncnc32)[C@H](O)[C@@H]1O	inactive	–
O=S1(=O)[C@H]2C[C@@H]3C=C[C@@]2(CN1Cc1ccc(Cl)cc1)O3	inactive: 16.1%	–
Cc1cccc(CNc2nc(-c3cccc(NS(C)(=O)=O)c3)nc3ccccc23)c1	inactive: 15%	–
O=c1c(-c2ccc(F)c(F)c2)nc2cncnc2n1C1CC1	inactive: 7.48%	–
C/C=C/C(=O)N(CC)c1ccccc1C	inactive	–
CC(NC(=O)c1ccco1)c1nnc2n1CCN(Cc1ccc(N(C)C)cc1)CC2 (stereo unspecified)	inactive: 14.1%	–
O=P(O)(O)C(Sc1ccc(Cl)cc1)P(=O)(O)O	inactive: -14.4%	–
O=C1N=C(O)CN1/N=C\c1ccc(-c2ccc([N+](=O)[O-])cc2)o1	inactive: -2.23%	–
N#CCCn1c(=O)cnc2cnc(Oc3ccccc3)nc21	inactive: 0.5%	–
C=CCCN(Cc1ccccc1)S(=O)(=O)c1cc(Br)ccc1Br	inactive: 16%	–

Structure (SMILES)	activity change, negative = inhibition	Potency
CC[C@H]1CN2CCc3cc(OC)c(OC)cc3[C@H]2C[C@@H]1C[C@@H]1NCCc2cc(OC)c(OC)cc21	inactive: -3.01%	–
CC(C)(C)OC(=O)N(Cc1ccco1)S(=O)(=O)c1ccccc1Br	inactive: -13.8%	–
N=C(N)N	inactive: 30%	–
CCOC(=O)C[C@H]1c2ccccc2S(=O)(=O)N1Cc1cccc(C(F)(F)F)c1	inactive: -12.2%	–
CCN(CC)CCOC(=O)C1(c2ccccc2)CCCC1	inactive: 12.3%	–
C=CC(C)(O)CC/C=C(\C)CCC=C(C)C (stereo unspecified)	inactive: 9.08%	–
CN(CCc1ccc(Cl)c(Cl)c1)C[C@@H](O)COc1ccc(NS(C)(=O)=O)cc1	inactive: -9.47%	–
C[C@H]1CCC(=O)N([C@H](CC#N)Cc2ccccc2)CC1	inactive: 15.4%	–
COc1cc(OC)c2c(OC)c(-c3ccc4c(c3)OCO4)c(=O)oc2c1	inactive: 7.54%	–
CC(CSC(=O)c1ccccc1)C(=O)N1C[C@@H](Sc2ccccc2)C[C@H]1C(=O)O (stereo partly specified)	inactive: 16.2%	–
CN1C(C(=O)Nc2ccccn2)=C(O)c2sccc2S1(=O)=O	inactive	–
Cc1ncc([N+](=O)[O-])n1CC(O)CCl (stereo unspecified)	inactive: 8.95% [at 75.8 µM]	–
Cc1cc(C(=O)NCCc2ccc(S(=O)(=O)NC(=O)NN3CCCCCC3)cc2)no1	inactive: 15.2%	–
O=c1c(CCc2ccccc2)nc2cncnc2n1Cc1ccccc1	inactive: 7.3%	–
COc1ccc(OC)c(-c2cc(Cl)c3c(c2)CC(CNC(=O)c2cnn4cccnc24)O3)c1 (stereo unspecified)	inactive: 23.3%	–
Cc1cn([C@H]2C[C@H](F)[C@@H](CO)O2)c(=O)[nH]c1=O	inactive: 10.8%	–
Cc1nc2cnc(Oc3ccccc3)nc2n(CCc2ccccc2)c1=O	inactive: 4.81%	–
Cc1noc(C)c1C(=O)N1CCC[C@@]2(CCN(Cc3ccccc3)C2)C1	inactive: 13.4%	–
CS(=O)(=O)Nc1cccc(-c2nc(Nc3ccccc3)c3ccccc3n2)c1	inactive: 0.303%	–
COC(=O)C1N[C@@H]([C@@H](NC(=O)COc2ccccc2)C(=O)NCc2ccsc2)SC1(C)C (stereo partly specified)	inactive: 12.1%	–
N[C@@H](C(=O)N[C@H]1C(=O)N2C(C(=O)O)=C(Cl)CC[C@H]12)c1ccccc1	inactive: 16.5%	–
Cc1cccc(C)c1NC(=O)C1CCCCN1C (stereo unspecified)	inactive: 6.5%	–
COc1ccc(C2C(=O)c3ccccc3C2=O)cc1	inactive: 14.4%	–
COc1cc2nc(CC(O)c3nc4cc(OC)c(OC)cc4[nH]3)[nH]c2cc1OC (stereo unspecified)	inactive: 15.3%	–

Structure (SMILES)	activity change, negative = inhibition	Potency
C[C@@H](CN(C)C)CN1c2ccccc2Sc2ccccc21	inactive: -0.415% [at 75.8 µM]	–
CN(C)c1ccc2nc3ccc(=[N+](C)C)cc-3sc2c1	inactive: -2.12%	–
CN(C)c1ncnc2ccc(-c3ccc4c(c3)OCO4)cc12	inactive: -20.3%	–
COc1cc(/C=C/C(=O)N2CCC=CC2=O)cc(OC)c1OC	inactive: -6.83%	–
O=C(O)c1cc2cc(Cl)ccc2[nH]1	inactive: 10.6%	–
COC(=O)C1CCN(Cc2ccc3c(c2)CN(C(=O)c2sc(C)nc2C)CCO3)CC1	inactive: 10.8%	–
COCC(=O)N1CCC2(CC1)CCN(c1ccccn1)CC2	inactive: 13.6%	–
C[C@H]1CCC(=O)N([C@H](CN=[N+]=[N-])Cc2ccccc2)CC1	inactive: 6.14%	–
COc1ccccc1CN1CC2(CCN(C(=O)c3cnccn3)CC2)C1	inactive: 10.5%	–
O=C(CCCN1CCN(c2ccc(F)cc2)CC1)NC1c2ccccc2CSc2ccccc21 (stereo unspecified)	inactive: 2.48%	–
Cc1cccc2cc(CN(C(=O)c3ccc(N4CCCCC4)cc3)C3CC3)c(N3CCC(O)CC3)nc12	inactive: 9.57%	–
CC1(C)S[C@@H]2C(C(=O)O)NC(=O)N2C1C(=O)O (stereo partly specified)	inactive: -1.92%	–
Oc1cc2c(c(Cl)c1O)CCNC[C@H]2c1ccccc1	inactive: -4.4%	–
S=C1SCN(Cc2ccccc2)CN1Cc1ccccc1	inactive: 17.3%	–
COc1c(O)c2c(=O)cc(OC)c3c4c(OC)cc(=O)c5c(O)c(OC)c(C[C@@H](C)OC(=O)c6ccccc6)c(c(c1C[C@@H](C)OC(=O)Oc1ccc(O)cc1)c23)c54	inactive: 10.9% [at 7.83 µM]	–
Cn1cccc1C(=O)N1CCC2(CC1)CCN(c1ccccc1)CC2	inactive: 17%	–
CC(=O)c1ccc(F)c(-c2cc(C)cc3c2OC(CNC(=O)c2cccnc2)C3)c1 (stereo unspecified)	inactive: -4.39%	–
N#Cc1cccc(-c2cncnc2NCCc2cnc[nH]2)c1	inactive: -8.42%	–
COc1ccc2[nH]cc(CCNc3cc(-c4ccoc4)ncn3)c2c1	inactive: -13.5%	–
CCN[C@@H]1C[C@H](N)[C@@H](OC2OC(CN)=CCC2N)[C@H](O)[C@H]1O[C@H]1OC[C@](C)(O)[C@H](NC)[C@H]1O (stereo partly specified)	inactive: 5.37%	–
CCS(=O)(=O)Nc1cc(C(=O)N2C[C@@H](C)O[C@@H](C)C2)c2c(c1)nc(-c1ccccc1)n2C	inactive: 8.62%	–
Cc1cc(C2CCCCC2)n(O)c(=O)c1	inactive	–
CC(=O)N1CCC2(CC1)CCN(C(=O)Nc1cccc(C#N)c1)CC2	inactive: 16.1%	–
C[C@@]12CC[C@@H]3c4ccc(O)cc4C[C@H](CCCCCCCCCS(=O)CCCC(F)(F)C(F)(F)F)[C@H]3[C@@H]1CC[C@@H]2O (stereo partly specified)	inactive: -5.29%	–

Structure (SMILES)	activity change, negative = inhibition	Potency
O=C(c1ccnc(-n2cnnn2)c1)N1CCOc2ccc(C(O)CCc3ccccc3)cc2C1 (stereo unspecified)	inactive: -4.03%	–
CCC1(C2CCN(C(=O)c3cccc(F)c3F)CC2)NC(=O)N(CCc2scnc2C)C1=O (stereo unspecified)	inactive: 11.9%	–
CC1=C(C(=O)OC(C)C)C(c2cccc([N+](=O)[O-])c2)C(C(=O)OC2CN(C(c3ccccc3)c3ccccc3)C2)=C(N)N1 (stereo unspecified)	inactive: -9.36%	–
O=S(=O)(c1ccccc1)N1CCC2(CC1)CN(c1ccccc1)C2	inactive: 5.63%	–
O=c1c(-c2ccc(F)cc2)nc2cnc(N3CCOCC3)nc2n1CCc1ccccc1	inactive: 3.59%	–
Oc1ccc(/C=C/c2ccc(/C=C/c3ccc(O)cc3)c(Br)c2)cc1	inactive: 23.9% [at 75.8 µM]	–
CS(=O)(=O)N1CCC2(CC1)CN(C(=O)Nc1cccc(F)c1)C2	inactive: 19.1%	–
CC(C)(N=NC(C)(C)C(=N)N)C(=N)N	inactive: -0.214%	–
COc1ccc2[nH]cc(CCNc3ccnc(-c4cccc(NS(C)(=O)=O)c4)n3)c2c1	inactive: 15.8%	–
OC[C@H]1O[C@@H](O[C@H]2[C@H](O)[C@@H](O)[C@H](O)O[C@@H]2CO)[C@H](O)[C@@H](O)[C@@H]1O	inactive: 16.1%	–
COc1cc(C(=O)NS(=O)(=O)c2ccccc2C)ccc1Cc1cn(C)c2ccc(NC(=O)OC3CCCC3)cc12	–	active: 89.1 µM
O=C(c1csnn1)N1CCC2(CCN(Cc3nccs3)CC2)CC1	inactive: 10.4%	–
Cc1cc(CNC(=O)CCN2Cc3cc(Cl)ccc3OC(C)C2)nn1C (stereo unspecified)	inactive: 4.43%	–
COc1ccc(CN2CCN(C(C)=O)CC2)cc1OC1CCN(C(=O)c2ccc3[nH]c(C)c(C)c3c2)CC1	inactive: 3.94%	–
CCCCCCCCCCCCC/C=C/[C@@H](O)[C@H](CO)NC(C)=O	inactive: -20.1% [at 15.3 µM]	–
CC(C)NC(=O)N1CCC2(CC1)CCN(C(=O)c1cc(C(F)(F)F)cc(C(F)(F)F)c1)CC2	inactive: 14.8%	–
COc1ccccc1CN1CCCC2(CCN(C(=O)c3c(C)noc3C)CC2)C1	inactive: 11.9%	–
O=C(O)c1cc(=O)c2ccccc2o1	inactive: -7.36%	–
CC(C)NC(=O)c1cn(C2CCC(NC(=O)C(C)(C)C)CC2)nn1 (stereo unspecified)	inactive: 20%	–
CN(CCc1ccc(Cl)c(Cl)c1)CCN1CCCCCC1	inactive: -1.95%	–
COc1ccc2oc(-c3ccccc3)c(OC)c(=O)c2c1	inactive: 4.07%	–
COc1ccc2ccc(=O)oc2c1	inactive: 6.21%	–
OC[C@H]1O[C@@H]2O[C@H]3[C@H](O)[C@@H](O)[C@@H](O[C@H]4[C@H](O)[C@@H](O)[C@@H](O[C@H]5[C@H](O)[C@@H](O)[C@@H](O[C@H]6[C@H](O)[C@@H](O)[C@@H](O[C@H]7[C@H](O)[C@@H](O)[C@@H](O[C@H]1[C@H](O)[C@H]2O)O[C@@H]7CO)O[C@@H]6CO)O[C@@H]5CO)O[C@@H]4CO)O[C@@H]3CO	inactive: 16.1%	–
NCCCC[C@H](NC(=O)[C@@H]1CCCN1C(=O)[C@@H]1CSSC[C@H](NC(=O)CNC(=O)CNC(=O)CN)C(=O)N[C@@H](Cc2ccc(O)cc2)C(=O)N[C@@H](Cc2ccccc2)C(=O)N[C@@H](CCC(N)=O)C(=O)N[C@@H](CC(N)=O)C(=O)N1)C(=O)NCC(N)=O (H-GGGCYFQNCPKG-NH2; disulfide 4-9)	inactive: -9.37%	–

— PubChem BioAssay AID1645882 (National Center for Advancing Translational Sciences (NCATS), 2021)
